Reference: the supplement of paper PMC4723716
± gives the uncertainty stated by the source. In all, about 9,900 compounds were measured (“viability index relative to DMSO control”: median about 1, lowest 2% from about 0.85 on). The list shows a part of the results.

System: Plasmodium falciparum NF54 stage V gametocytes
Assay: viability index relative to DMSO control (fraction); higher = less gametocyte killing
Settings: 2.5 µM, library set: Broad Institute DOS, incubation time: 72 h
Procedure, shortened: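 Compound at 2.5 µM was incubated for 72 hr at 37°C under low oxygen with P. falciparum NF54 stage V gametocytes (0.75% gametocytemia, 1.25% hematocrit, 10 µl, serum-free screening medium) in 1,536-well plates. Staining used 3 µl of 2.5 µM MitoTracker Red CMXRos plus 0.13% saponin for one to two hours, and red particles of 20–70 µm2 were counted in one imaged field per well. Each viability index is that count relative to the plate mean of solvent-only wells.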

Structure (SMILES)	viability index
Cc1ccc(-c2ccc([C@H]3[C@H]4CN(C(=O)NC(C)C)CC(=O)N4[C@H]3CO)cc2)cc1	1.076 ± 0.006
COc1ccc(C[C@@H]2CCn3cc(nn3)COC[C@H](c3ccccc3)NC2=O)cc1	1.03 ± 0.042
CN(C[C@H]1[C@H](c2ccccc2)[C@@H](CO)N1Cc1ccccn1)S(C)(=O)=O	1.04 ± 0.084
O=C(C[C@H]1C[C@@H]2c3cc(NC(=O)c4cccnc4)ccc3O[C@@H]2[C@@H](CO)O1)NCc1cc(F)ccc1F	1.02 ± 0.092
C[C@H]1CN([C@@H](C)CO)C(=O)c2cccc(N(C)C)c2O[C@H]1CN(C)C(=O)Nc1ccc(F)cc1	0.966 ± 0.053
C[C@H](CO)N1C[C@H](C)[C@H](CN(C)C(=O)CCCN(C)C)OCCCC[C@H](C)Oc2ccc(NC(=O)Nc3ccc4c(c3)OCO4)cc2C1=O	1.04 ± 0.034
C[C@@H]1CN([C@H](C)CO)C(=O)c2c(c3ccccc3n2C)-c2ccccc2CO[C@H]1CN(C)C(=O)Nc1ccc2c(c1)OCO2	0.941 ± 0.06
COCC(=O)N(C)C[C@H]1[C@@H](c2ccccc2)[C@H](CO)N1C(=O)Cc1ccncc1	1.074 ± 0.0017
O=C(C[C@H]1C[C@H]2c3cc(NC(=O)c4ccc5c(c4)OCO5)ccc3O[C@H]2[C@@H](CO)O1)NCCN1CCCCC1	1.08 ± 0.037
CC(=O)N1[C@H](CN(C)S(=O)(=O)c2ccccc2)[C@H](c2ccccc2)[C@@H]1CO	1.02 ± 0.065
O=S(=O)(NC[C@H]1[C@H](c2ccccc2)[C@H](CO)N1CC1CC1)c1ccccc1	1.02 ± 0.16
CCS(=O)(=O)N1C[C@@]2(C1)CN(C)[C@H](CO)c1c2c2ccc(OC)cc2n1C	1.04 ± 0.072
O=C(C1CCOCC1)N1CC(=O)N2[C@@H](CO)[C@H](c3ccc(C#CCc4ccccc4)cc3)[C@@H]2C1	1.084 ± 0.0042
CC(=O)N(CC1CCC1)C[C@H]1N[C@H](CO)[C@@H]1c1ccc(C2=CCCC2)cc1	0.987 ± 0.059
COc1cccc(NC(=O)C[C@H]2CC[C@H]3[C@@H](COc4ccc(NS(=O)(=O)c5cccc(F)c5)cc4C(=O)N3C)O2)c1	1.147 ± 0.003
O=C(NC1CCCC1)[C@H]1[C@H](CO)[C@H]2Cn3c(cccc3=O)[C@@H]1N2C(=O)CC1CC1	1.05 ± 0.051
COCC(=O)N1C[C@@]2(C1)CN(Cc1ccccc1F)[C@H](CO)c1[nH]c3cc(OC)ccc3c21	0.986 ± 0.11
OC[C@H]1[C@@H](c2ccc(Br)cc2)[C@H]2CNCCCCN21	1.01 ± 0.06
COc1cccc(S(=O)(=O)N2C[C@H](O)COC[C@@H]3O[C@H](CC(=O)NCCCN4CCOCC4)CC[C@H]32)c1	1.13 ± 0.012
Cc1noc(C)c1S(=O)(=O)N(C)C[C@H]1OCCCC[C@H](C)Oc2ccc(NC(=O)CCC(F)(F)F)cc2C(=O)N([C@H](C)CO)C[C@@H]1C	1.13 ± 0.054
C[C@@H]1CN([C@H](C)CO)C(=O)c2cc(NC(=O)Nc3ccccc3)ccc2O[C@H]1CN(C)Cc1ccccc1	1.03 ± 0.049
CCc1cnc(N2[C@@H](C#N)[C@@H](c3ccc(C#Cc4ccccc4F)cc3)[C@@H]2CO)s1	1.08 ± 0.056
C[C@@H]1CN([C@H](C)CO)C(=O)c2cc(NC(=O)Cc3ccccc3)ccc2O[C@@H](C)CCCCO[C@@H]1CN(C)Cc1ccncc1	1.13 ± 0.062
CNC[C@@H]1Oc2c(NS(=O)(=O)c3ccc(Cl)cc3)cccc2C(=O)N([C@H](C)CO)C[C@H]1C	0.9776 ± 0.0086

Structure (SMILES)	viability index
CC(C)(C)[S@@](=O)N1Cc2cc(C(=O)N[C@H]3CCN(Cc4ccccc4)C3)nc(-c3cccc(-c4cccnc4)c3)c2[C@H]1CCO	1.03 ± 0.04
O=C(C[C@H]1C[C@H]2c3cc(NS(=O)(=O)c4ccccc4)ccc3O[C@H]2[C@H](CO)O1)N1CCOCC1	0.946 ± 0.0031
CN(C)C(=O)c1ccc(-c2ccccc2[C@@H]2[C@@H](C#N)N(C(=O)C3CC3)[C@@H]2CO)cc1	1.11 ± 0.1
CCS(=O)(=O)N1[C@H](C#N)[C@@H](c2ccc(C#Cc3ccccc3F)cc2)[C@H]1CO	1.05 ± 0.032
COc1ccc2c3c([C@@H](CO)NC[C@]33CCN(Cc4cc(on4)-c4ccccc4)CC3)n(C)c2c1	0.9102 ± 0.0072
COc1ccccc1C(=O)Nc1ccc2c(c1)C(=O)N(C)C[C@H](OC)[C@@H](C)CN(C(C)=O)[C@H](C)CO2	0.968 ± 0.041
O=C(Cc1ccccn1)N[C@H]1CC[C@@H](CCNS(=O)(=O)c2cccc(F)c2)O[C@@H]1CO	1.06 ± 0.069
COCC#Cc1ccc([C@H]2[C@H](CO)N3CCCCN(C(=O)NC4CCCC4)C[C@@H]23)cc1	0.984 ± 0.04
Cn1cnc(CCNC(=O)C[C@H]2CC[C@@H]3[C@H](COC[C@H](O)CN3C(=O)Nc3ccc(C(F)(F)F)cc3)O2)c1	1.1 ± 0.088
COc1cccc(CN2[C@H](CO)[C@H](c3ccccc3)C23CN(C(=O)C2CCCCC2)C3)c1	1.12 ± 0.0075
Cc1cccc(-c2ccc([C@@H]3[C@@H]4CN(Cc5cccc(F)c5)C[C@H]3N4)cc2)c1	0.816 ± 0.064
CC(C)NC(=O)N(C)C[C@H]1Oc2ccc(NC(=O)Cc3ccccc3)cc2CC(=O)N([C@H](C)CO)C[C@H]1C	1.02 ± 0.014
Cc1noc(C)c1NC(=O)Nc1ccc2c(c1)C(=O)N([C@@H](C)CO)C[C@@H](C)[C@@H](CN(C)S(=O)(=O)c1cccs1)OCCCC[C@H](C)O2	1.05 ± 0.014
CO[C@H]1CN(C)C(=O)c2cc(NC(=O)C3CCCCC3)ccc2OC[C@H](C)N(Cc2cccnc2)C[C@@H]1C	1.03 ± 0.028
CCC(=O)N1CC2(C1)[C@H](c1ccccc1)[C@H](CO)N2CC1CC1	1.08 ± 0.048
CCS(=O)(=O)Nc1ccc2c(c1)C(=O)N(C)[C@H]1CC[C@@H](CC(=O)NCc3ccccc3F)O[C@H]1CO2	1.17 ± 0.18
COc1ccc2c3c([C@@H](CO)N(C[C@]33CCN(CC3)S(=O)(=O)c3cccc(C)c3)C(=O)Nc3ccc(F)cc3)n(C)c2c1	0.998 ± 0.011
O=S(=O)(c1cccs1)N1CCCCN2[C@H](C1)[C@H](c1ccc(/C=C/c3ccccc3)cc1)[C@@H]2CO	0.924 ± 0.016
C[C@@H]1COCc2cn(nn2)CCCC(=O)N1	1.004 ± 0.0086
CO[C@H](CN(C)C(=O)c1cnccn1)[C@H](C)CN([C@H](C)CO)S(=O)(=O)c1ccccc1	0.948 ± 0.067
O=C(C[C@H]1CC[C@@H]2[C@H](COC[C@H](O)CN2Cc2cocn2)O1)N[C@@H]1CCN(Cc2ccccc2)C1	1.05 ± 0.038
O=C(CN1CCOCC1)N1CC(=O)N2[C@H](CO)[C@@H](c3ccc(-c4cccc(F)c4)cc3)[C@@H]2C1	1.01 ± 0.12
C[C@@H]1CCCCO[C@H](CN(C)C(=O)NC2CCCCC2)[C@@H](C)CN([C@@H](C)CO)C(=O)c2cc(N(C)C)ccc2O1	1.12 ± 0.099
O=C(Cc1cccnc1)N1CC(=O)N2[C@H](C1)[C@@H](c1ccc(C#CC3CCCCC3)cc1)[C@@H]2CO	0.985 ± 0.11

Structure (SMILES)	viability index
C[C@H](CO)N1C[C@H](C)[C@H](CN(C)S(=O)(=O)c2cn(C)cn2)Oc2ccc(NC(=O)C3CC3)cc2CC1=O	0.912 ± 0.032
C[C@@H](O)C#Cc1ccc([C@@H]2[C@H](CO)N3CCCCN(C(=O)c4ccc5c(c4)OCO5)C[C@@H]23)cc1	1.018 ± 0.0019
COc1ccc(-c2ccccc2[C@@H]2[C@H](C#N)N(C(=O)c3cccnc3)[C@H]2CO)cc1	1.11 ± 0.099
O=C(C[C@H]1CC[C@H]2NC[C@@H](O)COC[C@@H]2O1)Nc1ccc(-c2ccccc2)cc1	0.997 ± 0.036
CC(=O)N1CC2(C1)[C@H](c1ccc(-c3ccc(F)cc3)cc1)[C@H](CO)N2CC1CC1	1.02 ± 0.021
CCC(=O)N1CC[C@@H]2[C@H]1c1cc(C#Cc3ccccc3F)ccc1N[C@@H]2CO	1.05 ± 0.035
O=C(C1CCCC1)N1CC2(C1)[C@@H](c1ccccc1)[C@@H](CO)N2Cc1ccc(Cl)cc1	1.02 ± 0.084
Cc1noc(C)c1NC(=O)Nc1ccc2c(c1)C(=O)N([C@@H](C)CO)C[C@@H](C)[C@H](CN(C)S(=O)(=O)c1cccs1)OCCCC[C@H](C)O2	0.928 ± 0.037
C[C@@H]1CN([C@@H](C)CO)C(=O)c2ccccc2-c2ccccc2CO[C@H]1CN(C)C(=O)[C@H](Cc1ccccc1)N(C)C	1.06 ± 0.12
CNC[C@H]1OCc2cn(nn2)CCCC(=O)N([C@@H](C)CO)C[C@@H]1C	1.05 ± 0.049
O=C(O)C[C@H]1C[C@@H]2c3cc(NC(=O)Nc4ccc(C(F)(F)F)cc4)ccc3O[C@@H]2[C@@H](CO)O1	1.07 ± 0.042
CC(=O)N1[C@H](CNC(=O)C2CC2)[C@@H](c2ccc(-c3ccccc3)cc2)[C@@H]1CO	1.05 ± 0.017
CO[C@@H]1CN(C)C(=O)c2cc(NC(=O)Nc3ccccc3F)ccc2OC[C@H](C)N(CCC(F)(F)F)C[C@H]1C	1.02 ± 0.043
O=C(C[C@@H]1CC[C@@H]2[C@H](COC[C@H](O)CN2C(=O)c2ccccc2F)O1)NCc1ccc(Cl)c(Cl)c1	1.02 ± 0.012
O=C(N[C@H]1C=C[C@H](CC(=O)N2CCN(c3ccccc3)CC2)O[C@H]1CO)c1ccccc1	1.15 ± 0.086
C[C@H](CO)N1C[C@H](C)[C@H](CN(C)CC2CC2)OCCCC[C@H](C)Oc2ccc(NC(=O)c3ccccc3)cc2C1=O	1.06 ± 0.034
COc1ccc2c3c([nH]c2c1)[C@@H](CO)N(C[C@]31CN(C1)C(=O)Nc1cccc(F)c1)C(=O)NC1CCCC1	1.05 ± 0.061
OC[C@H]1Nc2ccc(-c3cccc(F)c3)cc2[C@H]2[C@@H]1CCN2Cc1ccc(F)cc1	1.03 ± 0.058
O=C(C[C@@H]1CC[C@H]2[C@@H](COC[C@@H](O)CN2Cc2ccc3c(c2)OCO3)O1)N1CCCCC1	0.9874 ± 0.0033
COc1cccc(C(=O)Nc2ccc3c(c2)C(=O)N(C)[C@H]2CC[C@H](CC(=O)N[C@H](C)c4ccccc4)O[C@H]2CO3)c1	0.9936 ± 0.0046
C[C@@H]1CN([C@H](C)CO)C(=O)CCCn2nncc2CO[C@@H]1CN(C)S(=O)(=O)c1cn(C)cn1	1.05 ± 0.068
C[C@@H]1CN([C@@H](C)CO)C(=O)CCCn2cc(nn2)CO[C@@H]1CN(C)C(=O)Nc1cccc2ccccc12	1.02 ± 0.023
C(=C\c1ccc([C@@H]2[C@@H]3CN(Cc4ccc5c(c4)OCO5)C[C@H]2N3)cc1)/c1ccccc1	0.9695 ± 0.0022
